Consider 23 molecules from ChEMBL document CHEMBL4888484, “Replenishing the malaria drug discovery pipeline: Screening and hit evaluation of the MMV Hit Generation Library 1 (HGL1) against asexual blood stage Plasmodium falciparum ,using a nano luciferase reporter read-out” (2022).

Screen size: about 150,000 compounds; about 540 (0.36%) showed an effect of 50% or more. Some of the results follow.

The % Inhibition is the change of the read-out against control, counted positive when it falls.

The test deals with Plasmodium falciparum. The test can be described thus: Primary screen in NF54 nanoGlo assay, in single point, at 2uM, 72h; a lower Z score goes with more inhibition. In kind it is functional, Erythrocyte. The note with it: timepoint 72 hour.
Take `CCn1cccc(NC(=O)NC[C@H]2c3ccccc3C(=O)N2C)c1=O`: the “% Inhibition” value is -11% and the Z score turned out to be 2.16.
As to `CCN1CCN(C(=O)CC2(N3Cc4ccccc4C3=O)CCC(C(C)(C)C)CC2)CC1` (stereo unspecified), the “% Inhibition” value is on record as -8% and the Z score is recorded as 1.3.
Consider `NC(=O)[C@@H]1C[C@@H]2CCCN2[C@]12C(=O)Nc1ccc(F)cc12`, for which the “% Inhibition” value is given as -7% and the Z score worked out at 0.91.
`c1cc(NCc2cccc3cn[nH]c23)cc(OCCn2cccn2)c1`: the “% Inhibition” value was -14% and the Z score is given as 1.4.
Turning to `CCc1ncc(CN(C)c2ccnc(N(C)C)n2)s1`, the “% Inhibition” value is -7% and the Z score was determined as 0.9.
For `O=C(N1Cc2cccnc2C1)C1(c2ccccc2)CCOCC1` the same measures were 4% and -0.54.
With `CC(=O)N(C)CC(=O)N1CCOc2cc(F)c(Br)cc21`, the “% Inhibition” value is listed as -2% and the Z score amounted to 0.38.
As for `COc1ccccc1CNC(=O)c1cc2c(N3CCCC3)nc(C)cn2n1`, the “% Inhibition” value is given as -7% and the Z score is 0.89.
Regarding `COc1cc(C2Nc3cccc4cccc(c34)N2)ccc1OCC(=O)Nc1ccc(Cl)cc1`, the “% Inhibition” value was -1% and the Z score is recorded as 0.08.
Regarding `Cc1ncoc1C(=O)N1CC[C@@]2(CCCN(CC3CCCCC3)C2)C1`, the “% Inhibition” value is -1% and the Z score is 0.16.
`Cc1cc(COc2cc(Cl)ccc2F)ncn1`: the “% Inhibition” value is -8% and the Z score came to 0.85.
As to `CCn1cc(-c2ccc(Cl)cc2)cc1C(=O)N1CCN(c2ccccn2)CC1`, the “% Inhibition” value is reported as -9% and the Z score is given as 1.59.
On to `CN(C)c1nccc(N(C)C[C@H]2CCOC2)n1`, for which the “% Inhibition” value was found to be 8% and the Z score is recorded as -1.12.
As for `CCc1noc(-c2[nH]c3ccccc3c2C(=O)C(=O)N(C)C)c1C`, the “% Inhibition” value is reported as -7% and the Z score is 0.91.
As for `COc1ccc(NC(=O)N2CC[C@H](Cc3noc(C4CC4)n3)C2)cc1`, the “% Inhibition” value was determined as 0% and the Z score is given as -0.06.
Take `CCC1CN(CCc2ccccn2)CCN1CC(C)O` (stereo unspecified): the “% Inhibition” value is reported as -5% and the Z score worked out at 0.77.
Take `Cc1csc(-c2cc(S(=O)(=O)NCC3CC3)cn2CC(=O)N2CCCCC2)n1`: the “% Inhibition” value is reported as -7% and the Z score is 0.93.
With `Cc1ccc(-c2ccc(C(=O)NCCc3ncnn3C)cc2)cc1C`, the “% Inhibition” value is on record as -13% and the Z score is 1.28.
Consider `CCCS(=O)(=O)Nc1ccc(S(=O)(=O)N[C@H]2CC(=O)N(C)C2=O)cc1F`, for which the “% Inhibition” value is recorded as -15% and the Z score is reported as 1.71.
As to `O=C(Cc1ccc(Cl)cc1)N1CCO[C@]2(CCS(=O)(=O)C2)C1`, the “% Inhibition” value is on record as -12% and the Z score is 1.76.
Take `CCc1c(C)nc(C)nc1N1CCN(C)[C@]2(CCC(=O)N(CC)CC2)C1`: the “% Inhibition” value is on record as -2% and the Z score came out at 0.3.
For `FC(F)c1cc(C(F)F)n2nc(-c3nnc(-c4ccccc4)o3)cc2n1` the same measures were 3% and -0.39.
Turning to `Clc1ccc(Cl)c(-c2cn(CCc3ccncc3)nn2)c1`, the “% Inhibition” value is -14% and the Z score was 2.75.
